Experimental data published in paper PMC12040169 (PLOS Biology, 2025).
Some of the results follow.

Each compound was assayed on T1, C. trachomatis L2/434/Bu expressing GFP (CTL2-GFP). Conditions: total inclusion area; 28.5 h, 10 µM; inhibitor.
T1 construct: L2/434/Bu GFP intracellular growth in HeLa cells
Parameters: species or system HeLa; C. trachomatis total inclusion area by high-content imaging, normalised to DMSO
Outline: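 After bulk GFP and resorufin fluorescence reads, cells were fixed, stained with Hoechst and imaged by high-content microscopy. Inclusion area and number (GFP) stood in for chlamydial growth, nuclei count (Hoechst) for host cell viability. MICs were derived as for the bulk readout.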

Compared with `CCCOc1ccc(N2C(=O)CC(N3CCC(C(=O)O)CC3)C2=O)cc1` (stereo not shown) [CBK287235], `NC(=O)C1CCN(C(=O)CN2CCN(Cc3ccccc3)CC2)CC1` [CBK265971C] is higher in “% of control remaining” value: 86.5871 for the first, 97.0119 for the second.

Going from `O=C(O)Cc1ccc(NC(=O)C2Cc3ccccc3C(=O)O2)cc1` (stereo not shown) [CBK269406] to `O=C(Cc1c[nH]c2ccccc12)N1CCc2ccccc21` [CBK200366], the “% of control remaining” value rises from 88.6432 to 132.052.

Going from `CC(NC(=O)/C(=C\c1ccccc1)NC(=O)c1ccc(Br)o1)C(=O)O` (stereo not shown) [CBK264934] to `O=C(O)c1nccnc1-c1ccc(COc2ccccc2)cc1` [CBK050806], the “% of control remaining” value rises from 79.3601 to 88.7569.

First: CC(=O)Nc1nc2ccc(S(C)(=O)=O)cc2s1 [CBK287336]
Second: COC(=O)c1cc(S(=O)(=O)NC2CCCc3ccccc32)cn1C (stereo not shown) [CBK304616]
The “% of control remaining” value of the first is higher: 94.3583 for the first, 47.9537 for the second.

Going from `COc1ccccc1CNS(=O)(=O)c1ccccc1[N+](=O)[O-]` [CBK261699] to `COc1cccc(S(=O)(=O)Nc2nn(Cc3ccc(C)cc3)c3ccccc23)c1` [CBK048043], the “% of control remaining” value falls from 91.818 to 80.2353.

First: Cc1ccccc1CSCC(=O)N1CCN(c2ccccc2)CC1 [CBK058577]
Second: CN1CCN(CC(=O)C(C#N)c2ccccc2)CC1 (stereo not shown) [CBK269270]
The “% of control remaining” value of the first is higher: 121.433 for the first, 117.467 for the second.

First: Brc1cn2ccnc2c(NCC2CC2)n1 [CBK037432]
Second: O=c1[nH]nc2c3c(nc(-c4ccncc4)n12)CCCC3 [CBK288029]
The “% of control remaining” value of the first is higher: 114.136 for the first, 105.549 for the second.

First: CC#Cc1cn([C@H]2C[C@@H](O)[C@@H](CO)O2)c(=O)nc1N [CBK201257]
Second: Cn1cc([C@@H]2O[C@H](CO)[C@H](O)C2O)c(=O)n(C)c1=O (stereo partly shown) [CBK201191]
The “% of control remaining” value of the first is lower: 84.1458 for the first, 105.819 for the second.

First: CC(C)(C)OC(=O)n1cccc1-c1cncc(-c2ccc(C(=O)N3CCOCC3)cc2)n1 [CBK138520]
Second: CC(C)(C)OC(=O)N1CCN(c2ncc([N+](=O)[O-])s2)CC1 [CBK000135]
The “% of control remaining” value of the first is higher: 107.57 for the first, 97.2356 for the second.

First: CC(C)c1ccc(C(C)NC(=O)Cn2cccc(C(=O)Nc3ccc(F)cc3)c2=O)cc1 (stereo not shown) [CBK286043]
Second: CC(NC(=S)Nc1ccc(S(N)(=O)=O)cc1)c1ccncc1 (stereo not shown) [CBK267073]
The “% of control remaining” value of the first is higher: 115.995 for the first, 91.1088 for the second.

Compared with `COc1ccc(C)cc1C1(CNC(=O)C2CCCC2N)CCOCC1` (stereo not shown) [CBK304308C], `COc1ccc(Br)cc1CN1CCC(N2CCN(c3ccccc3OC)CC2)CC1` [CBK264681G] is higher in “% of control remaining” value: 28.5294 for the first, 97.7642 for the second.

Going from `O=S(=O)(Nc1nc(-c2sccc2Cl)cs1)c1cc(Cl)ccc1Cl` [CBK014147] to `Cn1c(CN2CCCCC2)nc2cc(NS(=O)(=O)c3ccc(Cl)cc3)ccc21` [CBK268404], the “% of control remaining” value rises from 91.1562 to 94.7272.

First: CC(=O)O[B-]1(OC(C)=O)N(c2ccc(S(N)(=O)=O)cc2)N=C(c2ccccc2)N=[N+]1c1ccccc1 [CBK260879]
Second: COc1ccc2cc(CNC(Cc3ccccc3)c3ccccc3)c(Cl)nc2c1 (stereo not shown) [CBK295357]
The “% of control remaining” value of the first is lower: 101.685 for the first, 112.958 for the second.

Compared with `CN1C(=O)COc2ccccc2CCCC[C@@H]2[C@H]1CCCN2C(=O)Cn1ccnc1` [CBK292152], `Cc1cc(C(=O)Nc2ccc(S(=O)(=O)N3CC(C)OC(C)C3)cc2)c2ccccc2n1` (stereo not shown) [CBK295170] is lower in “% of control remaining” value: 123.979 for the first, 72.9449 for the second.

Going from `C[C@H]1CN2C[C@H](O)CC2CN1Cc1cn(C)c2ccc(F)cc12` (stereo partly shown) [CBK285428] to `Cc1nn(C)c(N2CCNCC2)c1NC(=O)c1cccn1C` [CBK050309T], the “% of control remaining” value rises from 94.4127 to 105.793.

Going from `COc1ccc(CCOC(=O)Nc2cn(C)nc2C(F)(F)F)cc1OC` [CBK021070] to `CCn1cc(Cl)c(C(=O)Nc2ccsc2C(=O)OC)n1` [CBK058439], the “% of control remaining” value rises from 16.3341 to 90.9421.

Compared with `CCc1c(C)c2cc(Cl)c(O)c(CN3CCCC3)c2oc1=O` [CBK267099], `O=C(NCC1CCCO1)c1ccc(CNS(=O)(=O)c2cccc(Cl)c2)cc1` (stereo not shown) [CBK267219] is lower in “% of control remaining” value: 138.376 for the first, 98.9851 for the second.

Going from `O=S(=O)(Nc1nnc(C(F)(F)F)s1)c1ccc(Br)cc1C(F)(F)F` [CBK062013] to `Cn1ccc(C(=O)NC(Cc2ccsc2)c2nccs2)cc1=O` (stereo not shown) [CBK285143], the “% of control remaining” value falls from 91.5636 to 86.6899.

Compared with `C=CCn1c(SCC(=O)Nc2ccc(OC)cc2)nnc1-c1ccncc1` [CBK126824], `O=C(O)CCCN1C(=O)/C(=C\c2ccccn2)SC1=S` [CBK264552] is lower in “% of control remaining” value: 113.307 for the first, 103.265 for the second.

Going from `CCCCCNC(=N)NC1Cc2ccccc2C1` [CBK036321T] to `O=C(CN1C(=O)C2C3C=CC(C3)C2C1=O)OCC(=O)c1ccccc1` (stereo not shown) [CBK265112], the “% of control remaining” value rises from 73.6991 to 97.1966.
